Test results published in the RNAGym collection of RNA variant scans (doi:10.1093/nar/gkz1192).
Read counts are not given, so values of variants with three or more changes are uncertain.

B1: CPEB3 Ribozyme (parent)
chain: UAACAGGGGGCCACAGCAGAAGCGUUCACGUCGCAGCCCCUGUCAGAUUCUGGUGAAUCUGCGAAUUCUGCUGUAUAUCUC

Variants of: B1
Assay: self-cleavage, relative activity (ratio to wild type); higher = more cleavage; in vitro, sequencing
How it was run: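 After error-prone PCR and barcoding, CPEB3 ribozyme mutant libraries were transcribed with T7 RNA polymerase at 37°C for 5 hours, then given 15 min with DNase I before an EDTA stop, and they cleaved during both steps. Reverse transcription with template switching preceded Illumina sequencing. Relative activity divides a variant's cleaved/total read fraction by the unmutated ribozyme's. At least 5 reads were required per variant, and three batches were averaged.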

Row | Variant | self-cleavage
1 | UAACAGGAGGCCACAGCAGAAGCGCCCACGUCGCAGCCCCUGUCAGAUUCUGGUGGAUCUGCGAAUUCUGCUGUAUAUCUC [G8A U25C U26C A56G] | 0.24
2 | UAACAGGAGGCCACAGCAGAAGCGCCCACGUCGCAGCCCCUGUCAGAUUCUGGCGAAUCUGCGAAUUCUGCCGUAUAUCUC [G8A U25C U26C U54C U72C] | 0.08
3 | UAACAGGAGGCCACAGCAGAAGCGCUCACGUCGCAGCCCCUGUCAGAUUCUGGUGAAUCUGCGAAUUCUGCCGUAUAUCAC [G8A U25C U72C U80A] | 0.08
4 | UAACAGGAGGCCACAGCAGAAGCGCUCACGUCGCAGCCCCUGUCAGAUUCUGGUGAAUCUGCGAAUUCUGCUGUAUACCUC [G8A U25C U78C] | 0.18
5 | UAACAGGAGGCCACAGCAGAAGCGUACACGUCGCAGCCCCUGUCAGAUUCUGGUGGAUCUGCGAAUCCUGCUGUAUAUCUC [G8A U26A A56G U67C] | 0.06
6 | UAACAGGAGGCCACAGCAGAAGCGUCCACGUCGCUGCCCCUGUCAGAUUCUGGUGAAUCUGCGAAUUCUGCUGUAUAUCUC [G8A U26C A35U] | 0.24
7 | UAACAGGAGGCCACAGCAGAAGCGUCCACGUCGCAGCCCCUGUCAGAUUCUGGUAAAUCUGCGGAUUCUGCAGUAUAUCUC [G8A U26C G55A A64G U72A] | 0.06
8 | UAACAGGAGGCCACAGCAGAAGCGUUCACGACGCAGCCCCUGUCAGAUUCUGGUGAAUCCGCGAAUUCUGCUGUAUACCUC [G8A U31A U60C U78C] | 0.05
9 | UAACAGGAGGCCACAGCAGAAGCGUUCACGCCGCAGCCCCUGUCAGAUUCUGGUGAAUCUGCGAGUUCUGCUGUAUAUCCC [G8A U31C A65G U80C] | 0.06
10 | UAACAGGAGGCCACAGCAGAAGCGUUCACGCCGCAGCCCCCGUCAGAUUCUGGUGAAUCUGCGAAUUCUGCUGUAUAUCUC [G8A U31C U41C] | 0.24
11 | UAACAGGAGGCCACAGCAGAAGCGUUCACGCCGCAGCCCCUGACAGAUUCUGGUGAAUCUGCGAAUUCUGCUGUAUAUCUC [G8A U31C U43A] | 0.13
12 | UAACAGGAGGCCACAGCAGAAGCGUUCACGUCGCAGCCCCCGUCUGAUUCUGGUGAAUCUGCGAAUCCUGCCGUAUAUCUC [G8A U41C A45U U67C U72C] | 0.18
13 | UAACAGGAGGCCACAGCAGAAGCGUUCACGUCGCAGCCCCCGUCAGAUUCUUGUGAGUCUGCGAAUUCUGCUGUAUAUCUC [G8A U41C G52U A57G] | 0.32
14 | UAACAGGAGGCCACAGCAGAAGCGUUCACGUCGCAGCCCCCGUCAGAUUCUGGGGAAUCUGCGAAUUCUGCUGUAUAUCAC [G8A U41C U54G U80A] | 0.07
15 | UAACAGGAGGCCACAGCAGAAGCGUUCACGUCGCAGCCCCUGACAGUUUCUGGUGAAUCUGCGAAUUCCGCUGUAUAUCUC [G8A U43A A47U U69C] | 0.06
16 | UAACAGGAGGCCACAGCAGAAGCGUUCACGUCGCAGCCCCUGACAGAUUCUGGGGAAUCUGCGAAUUCUGCUGUAUAUCUC [G8A U43A U54G] | 0.23
17 | UAACAGGAGGCCACAGCAGAAGCGUUCACGUCGCAGCCCCUGCCAGAUUCUGGUGGAUCUGCGAAUUCUGCUGUAUAUCUC [G8A U43C A56G] | 0.06

Row | Variant | self-cleavage
18 | UAACAGGAGGCCACAGCAGAAGCGUUCACGUCGCAGCCCCUGUCAGACUCUGGUGAAUCUGCGAGUUCUGCCGUAUAUCUC [G8A U48C A65G U72C] | 0.13
19 | UAACAGGAGGCCACAGCAGAAGCGUUCACGUCGCAGCCCCUGUCAGAUCCUGGUGAAUCUGCGAAAUCUGCUGUAUGUCAC [G8A U49C U66A A77G U80A] | 0.05
20 | UAACAGGAGGCCACAGCAGAAGCGUUCACGUCGCAGCCCCUGUCAGAUUCAGGUGAUUCUGCGAAUUCUGCUGUAUAUCUC [G8A U51A A57U] | 0.06
21 | UAACAGGAGGCCACAGCAGAAGCGUUCACGUCGCAGCCCCUGUCAGAUUCUGGCGACUCUGCAAAUUCUGCUGUAUACCUC [G8A U54C A57C G63A U78C] | 0.09
22 | UAACAGGAGGCCACAGCAGAAGCGUUCACGUCGCAGCCCCUGUCAGAUUCUGGUGAAUCCGCGAAUUCUGCUGUAUAUGUC [G8A U60C C79G] | 0.07
23 | UAACAGGAGGCCACAGCAGAAGCGUUCACGUCGCAGCCCCUGUCAGAUUCUGGUGAAUCCGCGAAGUCUGCUGUAUAUCCC [G8A U60C U66G U80C] | 0.08
24 | UAACAGGAGGCCACAGCAGAAGCGUUCACGUCGCAGCCCCUGUCAGAUUCUGGUGAAUCUGCGAACUCUGCUGUAUGUCUC [G8A U66C A77G] | 0.04
25 | UAACAGGAGGCCACAGCAGAAGCGUUCACGUCGCAGCCCCUGUCAGAUUCUGGUGAAUCUGCGAAUCCUGCAGUAUAUCUC [G8A U67C U72A] | 0.11
26 | UAACAGGCGGCCUCAGCAGAAGCGUUCACGUCGCAGCCCCUGGCAGAUACGGGUGAAUCUGCGAAUUCUGCUGUAUAUCUC [G8C A13U U43G U49A U51G] | 0.05
27 | UAACAGGCGGCCACGGCAGAAGCGUUCACGUCGCAGCCCCUGUCAGAUUCUGGUGAAUUCGCGAAUUCUGCUGUAUACCUC [G8C A15G C59U U60C U78C] | 0.06
28 | UAACAGGCGGCCACUGCAGAAGCGUUCACGUCGCAGCCCCUGUCAGAUUCUGGUGGUCCUGCGAAUUCUGCUGUAUAUCUC [G8C A15U A56G A57U U58C] | 0.08
29 | UAACAGGCGGCCACAGCGGAAGCGUUCUCGUCGCAGCCCCUGUCAGAUUCUGGUGAAUCUGCGAAUCCUGCUGUAUAUCUC [G8C A18G A28U U67C] | 0.07
30 | UAACAGGCGGCCACAGCUGGAGCGUUCUCGUCGCAGCCCCUGUCAGAUUCUGGUGAAUCUGCGAAUUCUGCUGUAUAUCUC [G8C A18U A20G A28U] | 0.09
31 | UAACAGGCGGCCACAGCAGAAGCGUUCACGUCGCAGCCCCUGUCCGAUUCUUGCGAAUCUGCGAAUUCUGCUGUAUAUCUC [G8C A45C G52U U54C] | 0.43
32 | UAACAGGCGGUCACAGCAGAAGCGGUCACGUCGCAGCCCCUGCCAGAUUCAGGUGAAUCUGUGAAUUCUGCUGUAUAUCUC [G8C C11U U25G U43C U51A C62U] | 0.12
33 | UAACAGGCGGCCAUAGCAGAAGCGUUCACGUCGCAGCCCCUGUCAGAAUCUGGUGAACCUGCGAAUUCAGCUGUAUAUCUC [G8C C14U U48A U58C U69A] | 0.05
34 | UAACAGGCGGCCAUAGCAGAAGCGUUCACGUCGCAGCCCCUGUCAGAUUCUGGUGAAUCUGCGAAUUCUGCAGUAUAUCUC [G8C C14U U72A] | 0.23
